# Measurements published in the supplement of paper PMC8728848.
# The list shows a part of the results.
# B1: OGAA (protein)
# chain: MVQKESQATLEERESELSSNPAASAGASLEPPAAPAPGEDNPAGAGGAAVAGAAGGARRFLCGVVEGFYGRPWVMEQRKELFRRLQKWELNTYLYAPKDDYKHRMFWREMYSVEEAEQLMTLISAAREYEIEFIYAISPGLDITFSNPKEVSTLKRKLDQVSQFGCRSFALLFADIDHNMCAADKEVFSSFAHAQVSITNEIYQYLGEPETFLFCPTEYCGTFCYPNVSQSPYLRTVGEKLLPGIEVLWTGPKVVSKEIPVESIEEVSKIIKRAPVIWDNIHANDYDQKRLFLGPYKGRSTELIPRLKGVLTNPNCEFEANYVAIHTLATWYKSNMNGVRKDVVMTDSEDSTVSIQIKLENEGSDEDIETDVLYSPQMALKLALTEWLQEFGVPHQY
# Key:
# Experiment in all cases: glycan array binding signal (z-score within array); higher = stronger binding
# Details in all cases: glycan notation: IUPAC condensed, linker removed
# [1] = target: Neu5Ac(a2-3)Gal(b1-4)GlcNAc(b1-3)Gal(b1-4)GlcNAc(b1-3)Gal(b1-4)GlcNAc
# Outline: (§1)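 From the Consortium for Functional Glycomics database, 3228 arrays were curated, keeping only those whose protein sequence was available. Binding is given as a within-array Z-score averaged across arrays sharing a protein sequence and across linkers. Negative Z-scores can be read as non-binding.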
# [2] = target: Neu5Ac(a2-3)Gal(b1-4)GlcNAc(b1-3)Gal(b1-4)GlcNAc(b1-3)Gal(b1-4)GlcNAc(b1-2)Man(a1-3)[Neu5Ac(a2-3)Gal(b1-4)GlcNAc(b1-3)Gal(b1-4)GlcNAc(b1-3)Gal(b1-4)GlcNAc(b1-2)Man(a1-6)]GalNAc
# Outline: as §1
# [3] = target: Neu5Ac(a2-3)Gal(b1-4)GlcNAc(b1-3)Gal(b1-4)GlcNAc(b1-3)GalNAc
# Outline: as §1
# [4] = target: Neu5Ac(a2-3)Gal(b1-4)GlcNAc(b1-3)Gal(b1-4)GlcNAc(b1-3)[Neu5Ac(a2-3)Gal(b1-4)GlcNAc(b1-3)Gal(b1-4)GlcNAc(b1-6)]GalNAc
# Outline: as §1
# [5] = target: Neu5Ac(a2-3)Gal(b1-4)GlcNAc(b1-3)Gal(b1-4)GlcNAc(b1-6)[Gal(b1-3)]GalNAc
# Outline: as §1
# [6] = target: Neu5Ac(a2-3)Gal(b1-4)GlcNAc(b1-3)Gal(b1-4)[Fuc(a1-3)]GlcNAc
# Outline: as §1
# [7] = target: Neu5Ac(a2-3)Gal(b1-4)GlcNAc(b1-3)GalNAc
# Outline: as §1
# [8] = target: Neu5Ac(a2-3)Gal(b1-4)GlcNAc(b1-3)[Neu5Ac(a2-3)Gal(b1-4)GlcNAc(b1-6)]GalNAc
# Outline: as §1
# [9] = target: Neu5Ac(a2-3)Gal(b1-4)GlcNAc(b1-6)GalNAc
# Outline: as §1
# [10] = target: Neu5Ac(a2-3)Gal(b1-4)GlcNAc(b1-6)[Gal(b1-3)]GalNAc
# Outline: as §1
# [11] = target: Neu5Ac(a2-3)Gal(b1-4)GlcNAc(b1-6)[Neu5Ac(a2-3)Gal(b1-3)]GalNAc
# Outline: as §1
# [12] = target: Neu5Ac(a2-3)Gal(b1-4)GlcNAc6S
# Outline: as §1
# [13] = target: Neu5Ac(a2-3)Gal(b1-4)[Fuc(a1-3)]GlcNAc
# Outline: as §1
# [14] = target: Neu5Ac(a2-3)Gal(b1-4)[Fuc(a1-3)]GlcNAc(b1-2)Man
# Outline: as §1
# [15] = target: Neu5Ac(a2-3)Gal(b1-4)[Fuc(a1-3)]GlcNAc(b1-3)Gal
# Outline: as §1
# [16] = target: Neu5Ac(a2-3)Gal(b1-4)[Fuc(a1-3)]GlcNAc(b1-3)Gal(b1-4)GlcNAc
# Outline: as §1
# [17] = target: Neu5Ac(a2-3)Gal(b1-4)[Fuc(a1-3)]GlcNAc(b1-3)Gal(b1-4)[Fuc(a1-3)]GlcNAc(b1-3)Gal(b1-4)[Fuc(a1-3)]GlcNAc
# Outline: as §1
# [18] = target: Neu5Ac(a2-3)Gal(b1-4)[Fuc(a1-3)]GlcNAc(b1-3)GalNAc
# Outline: as §1
# [19] = target: Neu5Ac(a2-3)Gal(b1-4)[Fuc(a1-3)]GlcNAc(b1-6)[Gal(b1-3)]GalNAc
# Outline: as §1
# [20] = target: Neu5Ac(a2-3)Gal(b1-4)[Fuc(a1-3)]GlcNAc(b1-6)[Neu5Ac(a2-3)Gal(b1-3)]GalNAc
# Outline: as §1
# [21] = target: Neu5Ac(a2-3)Gal(b1-4)[Fuc(a1-3)]GlcNAc6S
# Outline: as §1
# [22] = target: Neu5Ac(a2-3)Gal6S(b1-4)GlcNAc
# Outline: as §1
# [23] = target: Neu5Ac(a2-3)Gal6S(b1-4)[Fuc(a1-3)]GlcNAc
# Outline: as §1
binder,measurement,setting,value
B1,glycan array binding signal (z-score),[1],-0.06
same,glycan array binding signal (z-score),[2],-0.088
same,glycan array binding signal (z-score),[3],-0.062
same,glycan array binding signal (z-score),[4],-0.106
same,glycan array binding signal (z-score),[5],-0.112
same,glycan array binding signal (z-score),[6],-0.073
same,glycan array binding signal (z-score),[7],-0.086
same,glycan array binding signal (z-score),[8],-0.114
same,glycan array binding signal (z-score),[9],-0.066
same,glycan array binding signal (z-score),[10],-0.107
same,glycan array binding signal (z-score),[11],-0.046
same,glycan array binding signal (z-score),[12],-0.095
same,glycan array binding signal (z-score),[13],-0.127
same,glycan array binding signal (z-score),[14],-0.097
same,glycan array binding signal (z-score),[15],-0.114
same,glycan array binding signal (z-score),[16],-0.006
same,glycan array binding signal (z-score),[17],-0.065
same,glycan array binding signal (z-score),[18],0.017
same,glycan array binding signal (z-score),[19],-0.025
same,glycan array binding signal (z-score),[20],0.007
same,glycan array binding signal (z-score),[21],-0.083
same,glycan array binding signal (z-score),[22],-0.047
same,glycan array binding signal (z-score),[23],0.086
